# Data reported in PubChem BioAssay AID686979 (National Center for Advancing Translational Sciences (NCATS), 2013).
# About 50,000 (12%) of roughly 420,000 compounds were called active. This list was built around the results that the source calls inconclusive (neither active nor inactive); the mix of calls is not that of the screen. The call rests on the fitted dose curve; in most records, active means well fitted inhibition curve with a large enough effect; inconclusive means small, poorly fitted or top-dose-only effect; inactive means flat fitted curve, though single readings scatter. No potency is given beside an inconclusive call; the fits are too rough.
# Assay: qHTS for Inhibitors of human tyrosyl-DNA phosphodiesterase 1 (TDP1): qHTS in cells in presence of CPT; further: nearly all actives have a fitted effect of over 55% in size
# Details: chicken DT40 Tdp1-/-;hTDP1 cells + 20 nM CPT, ATP luminescence, 48 h; activity change, negative = growth inhibition: at 46.2 µM (top of the series)
# Outline: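 Chicken DT40 Tdp1-/- cells complemented with human TDP1, 400 cells/well, exposed to compounds plus 20 nM camptothecin for at least 48 h at 37 C; viability read as ATP content by CellTiter-Glo luminescence.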
# On the % scale 0 is the no-effect control and ±100 the full control effect; potency means the concentration at half of the fitted maximal effect; tags describe the fitted curve by direction and shape.
SMILES,Potency,"activity change, negative = growth inhibition"
O=C(NCCOc1ccccc1F)Nc1ccc(Br)cc1,"inconclusive [inhibitor, single point]",–
O=S(=O)(NC1CCCCC1)c1cccc(-c2nnc(-c3ccccc3)o2)c1,"inconclusive [inhibitor, single point]",–
CCC(=O)N1CCc2cc(S(=O)(=O)CCC(=O)NCc3ccc(C)cc3)ccc21,–,inconclusive: -31.1% [inhibitor]
COc1ccc(N2C(=O)CC2(/C=C/c2ccccc2OC)C(=O)NC2CCCC2)cc1 (stereo unspecified),"inconclusive [inhibitor, single point]",–
CCc1cccc(NC(=O)c2cc3c(=O)n(Cc4ccc(OC)cc4)ccc3nc2C)c1,"inconclusive [inhibitor, single point]",–
CCOC(=O)c1ccccc1NC(=O)c1ccc2c(=O)n3c(nc2c1)CCCCC3,"inconclusive [inhibitor, single point]",–
Clc1ccc(-c2nnc(C34CC5CC(CC(C5)C3)C4)o2)cn1,"inconclusive [inhibitor, single point]",–
Cc1cc2c(NC3CCCCC3)ncnc2s1,"inconclusive [inhibitor, single point]",–
Cn1c(NCC2CCCCC2)nc2cc(-c3ccsc3)sc2c1=O,active: 25.9 µM,–
CCOC(=O)N1CCN(C(=O)c2ccc(S(=O)(=O)Nc3ccccc3)cc2)CC1,active: 11.6 µM,–
CCC1CCCCN1C(=O)COc1ccc2c3c(c(=O)oc2c1)CCC3 (stereo unspecified),"inconclusive [inhibitor, partial curve]",–
Cc1ccc2cc(C3CC(c4ccco4)=NN3C(=O)CCC(=O)O)c(Cl)nc2c1 (stereo unspecified),"inconclusive [inhibitor, single point]",–
CC(C)c1ccc(NC(=O)CN2CCN(C(=O)C3CCCO3)CC2)cc1 (stereo unspecified),inactive,–
Cc1nc(NC(=O)c2ccc([N+](=O)[O-])cc2Cl)sc1C(=O)N(C)C,"inconclusive [inhibitor, partial curve, poor fit]",–
CCOC(=O)Cc1csc(SC(C)C(=O)Nc2ccc(NC(C)=O)cc2)n1 (stereo unspecified),inactive,–
Cc1ccc(C(c2nnnn2CS(=O)(=O)c2ccc(C)cc2)N2CCC(C)CC2)cc1 (stereo unspecified),"inconclusive [inhibitor, single point]",–
COC(=O)c1ccc(NC(=O)c2ccc3c(c2)C(=O)N(Cc2cccnc2)C3=O)cc1,inactive,–
Cc1nc2ccc(N)nc2nc1C,inactive,–
O=C(NC1CCCCC1)N(CCO)Cc1cc2cc3c(cc2[nH]c1=O)OCCO3,"inconclusive [inhibitor, single point]",–
Cc1ccc(Oc2ccccc2/C=N/O)cc1,active: 11.6 µM,–
CCCCNC(=O)C1(C)CCCCN1C(=O)c1cc2ccccc2s1 (stereo unspecified),active: 8.2 µM,–
O=[N+]([O-])c1ccc2c([N+](=O)[O-])ccc3c2c1CC3,active: 18.4 µM,–
O=C(CSc1n[nH]c(-c2ccccc2O)n1)N1CCOCC1,inactive,–

SMILES,Potency,"activity change, negative = growth inhibition"
CC(C)(C)N(Cc1ccccc1)C(=O)c1cccs1,"inconclusive [inhibitor, single point]",–
COc1ccccc1N1CCN(C(=O)c2ccc3[nH]c(C)c(C)c3c2)CC1,active: 1.3 µM,–
Cc1nnc(N2C(=O)C(=O)/C(=C(/O)c3ccc4c(c3)OCCO4)C2c2cccc([N+](=O)[O-])c2)s1 (stereo unspecified),"inconclusive [inhibitor, single point]",–
CSc1ccccc1OCc1cc(C(=O)N2CCN(C3CCCC3)C(=O)C2)no1,"inconclusive [inhibitor, partial curve]",–
Cc1cc2oc(C(=O)N(Cc3ccccc3F)C3CCS(=O)(=O)C3)c(C)c2cc1Cl (stereo unspecified),"inconclusive [inhibitor, single point]",–
C=CCN1c2ccccc2[C@]23C[C@@H](C(=O)OC)N(C(=O)c4cc(C)oc4C)C2=NC(C(=O)OC)=C(C(=O)OC)[C@H]13,"inconclusive [inhibitor, single point]",–
COc1ccc(C(=O)c2ccccc2)c2c(O)ccc(C(=O)c3ccccc3)c12,"inconclusive [inhibitor, single point]",–
CC1CCCN(CCOCCOc2ccc(Br)cc2Cl)C1 (stereo unspecified),active: 18.4 µM,–
Cc1ccc(S(=O)(=O)N2C[C@H]3n4c(=O)ccc(=O)n4C[C@H](OC(=O)NCc4ccccc4)[C@@]3(O)C2)cc1,"inconclusive [inhibitor, single point]",–
CCCN1CCN(C(=O)C2CCN(c3nnc(C)c4c(C)n(-c5ccc(C)cc5)nc34)CC2)CC1,"inconclusive [inhibitor, single point]",–
CCOc1[nH]c(/N=C/c2ccco2)c(C#N)c1C#N,active: 20.6 µM,–
CC1Cc2ccccc2N1C(=O)COC(=O)Cc1ccc(F)cc1 (stereo unspecified),inactive,–
COc1ccc(CSC(=S)NNc2ccccc2)cc1,"inconclusive [inhibitor, single point]",–
CCCc1c(C(=O)N/N=C/c2ccccc2C(F)(F)F)nnn1-c1nonc1N,inactive,–
CC1Cc2ccccc2N1C(=O)COc1cccc(-n2cnnn2)c1 (stereo unspecified),inactive,–
O=S1(=O)CCOC[C@H](Cc2ccccc2)N1Cc1cccc(C(F)(F)F)c1,active: 18.4 µM,–
CC1=C(C(=O)OCC2CCCCC2)C(c2cccc(Cl)c2Cl)CC(=O)N1 (stereo unspecified),inactive,–
COc1cccc(C(O)c2ncc(-c3ccc4ccccc4c3)[nH]2)c1 (stereo unspecified),"inconclusive [inhibitor, single point]",–
COC(=O)c1cccc(Cn2c(Cl)c(/C=N/NC(=O)c3ccco3)sc2=O)c1,"inconclusive [inhibitor, single point]",–
COc1ccc2nc(NCCO)[nH]c2c1,inactive,–
Cc1ccc(Cn2c(C3CCCN3c3nc(-c4cc(Cl)c(N)c(Cl)c4)cs3)nc3cc(C(=O)NCCCO)ccc32)cc1 (stereo unspecified),"inconclusive [inhibitor, single point]",–
Cc1ccc(CNc2ncccc2-c2nc(-c3ccc(Cl)cc3)no2)cc1,inactive,–
O=C(CCCn1c(=O)c2sccc2n(Cc2ccc(Cl)cc2)c1=O)NCc1ccc2c(c1)OCO2,"inconclusive [inhibitor, single point]",–
